Converted amounts (≈) assume the structure as drawn.
Tested on: E coli TEM1 1919E
Experiment: microbe, parasite or virus in culture
Settings: 18 h
Protocol: The antibacterial activity of the compounds of the invention may be readily determined using conventional test procedures. For example the antibacterial activity of the compounds of the invention was determined using a standard microtiter broth serial dilution test. In this test the broth was incubated with approximately 10^5 colony forming units of the test organism and incubated at 35° for 18 hours in the presence of test compound. Results obtained using the test procedure are given in the table below and are expressed as minimum inhibitory concentrations (MIC) in micrograms/ml.

In the case of CN=CN[C@H]1CCC[C@H]2C1=C(C(=O)O)N1C(=O)[C@H]([C@@H](C)O)[C@@H]21 [Example 2, (4 S,8S,9R,10S,12R)-4-[(3'-methyl)formamidino)-10-(1-hydroxyethyl)-11-oxo-1-azatricyclo[7.2.0.0^3.^8]undec-2-ene-2-carboxylic acid], the MIC is reported as 1 µg/mL (≈ 3.25 µM).

Reference: US5426104A, “Tricyclic carbapenem compounds, methods of preparation and methods of use” (Glaxo SpA, priority 1991, dated 1995)
